Among all 340,000 compounds or so, about 12,000 (3.5%) were called active. This list was built around the results that the source calls inconclusive (neither active nor inactive); the mix of calls is not that of the screen. The call rests on the fitted dose curve; in most records, active means well fitted inhibition curve with a large enough effect; inconclusive means small, poorly fitted or top-dose-only effect, or another doubt; inactive means no such curve, though single readings can be large or run the other way. No potency is given beside an inconclusive call; the fits are too rough.
Experiment: qHTS Assay for Inhibitors of Hepatitis C Virus (HCV)
Settings: Huh7.5.1 HCVcc-Cre (HCVcc is cell-culture hepatitis C virus) infection, luciferase reporter, 44 h; activity change, negative = inhibition: at 41.8 µM (top of the series)
In short: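 Luciferase read-out (15 sec integration) after a 15 min room-temperature substrate step quantifies HCVcc-Cre infection. Cells, 1,000 per well, had compound added 4 h post-plating, then virus at ~0.5 moi, and were cultured 44 h.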
In the case of `Cc1cc(C(=O)N2CCN(C(=O)c3ccco3)CC2)ccc1[N+](=O)[O-]`, the Potency is reported as “inactive”.
In the case of `CN(c1ccccc1)S(=O)(=O)c1ccc(NC(=O)C2CCCCC2C(=O)O)cc1` (configuration not stated), the Potency is reported as inconclusive [inhibitor, single point].
With `CCC(CC)C1C(C#N)=C(N)Oc2n[nH]c(-c3ccccc3)c21` (configuration not stated) the Potency was inconclusive [inhibitor, single point].
In the case of `Cc1ccc(NC(=O)c2ccc(CNc3c(N4CCC(C)CC4)c(=O)c3=O)cc2)cc1`, the Potency is reported as “inactive”.
With `Cc1cc(C)nc(N2CCC(C(=O)N3CCN(c4cc(Cl)ccc4C)CC3)CC2)n1` the Potency was active: 12.6 µM.
With `CCOC(=O)N1CCC(Nc2ncnc3c2cnn3-c2ccc(Cl)cc2)CC1` the Potency was “inactive”.
For `Cc1cccc(N2CCN(C(=O)c3ccc(CNc4c(N5CCC(C)CC5)c(=O)c4=O)cc3)CC2C)c1` (configuration not stated), the Potency was inconclusive [inhibitor, single point].
For `CCOC(=O)C1CCN(C(C)C(=O)c2c(C)[nH]c3cc(C)ccc23)CC1` (configuration not stated), the Potency was inconclusive [inhibitor, single point].
With `Cc1onc(-c2c(F)cccc2Cl)c1C(=O)N(Cc1ccccc1)C(C)C` the Potency was inconclusive [inhibitor, single point].
In the case of `Cc1ccc(C(=O)C2CCN(C(=S)NCCCOC(C)C)CC2)cc1`, the Potency is reported as inconclusive [inhibitor, single point].
With `COc1ccccc1C(=O)/C=C/c1ccc(N2CCCCC2)c([N+](=O)[O-])c1` the Potency was active: 11.2 µM.
For `O=C(CN1CCN(c2ccc(Cl)cc2)CC1)Nc1ccc(F)c(F)c1`, the Potency was inconclusive [inhibitor, single point].
With `COc1ccc(-c2nc(S(=O)(=O)c3ccccc3)c(NCCCN3CCOCC3)o2)cc1` the Potency was “inactive”.
With `CCOC(=O)CCCCC(=O)c1[nH]c(=O)[nH]c1Cn1cnc2ccccc21` the Potency was “inactive”.
In the case of `CCN(CCCNC(=O)c1[nH]c(C)c(C(C)=O)c1C)c1cccc(C)c1`, the Potency is reported as inconclusive [inhibitor, partial curve].
For `Cc1ccc(-c2nnc(N3CCCCC3)c3ccccc23)cc1S(=O)(=O)N(C)C`, the Potency was inconclusive [inhibitor, partial curve].
In the case of `O=C(CCn1c(=O)c2ccccc2n(Cc2ccccc2)c1=O)NC1CCN(Cc2ccccc2)CC1`, the Potency is reported as inconclusive [inhibitor, single point].
With `CN(C)S(=O)(=O)c1cccc(C(=O)Nc2cc(Cl)cc(Cl)c2)c1` the Potency was active: 11.2 µM.
In the case of `COc1ccc(CCNC(=O)CSc2nnc3ccc(-c4cccnc4)nn23)cc1`, the Potency is reported as “inactive”.
With `Cn1c(=O)c2c(SCC(N)=O)nc(CC(C)(C)C)nc2n(C)c1=O` the Potency was inconclusive [inhibitor, full curve].
In the case of `Cc1cccc(NC2=C(NC(=O)c3ccccc3)C(=O)c3ccccc3C2=O)c1`, the Potency is reported as inconclusive [inhibitor, single point].
In the case of `O=C(Nc1cnn(C23CC4CC(CC(C4)C2)C3)c1)c1cc(-c2ccccc2)on1`, the Potency is reported as “inactive”.
In the case of `CCOC(=O)C1(CCCc2ccccc2)CCN(CC(O)CO)CC1` (configuration not stated), the Potency is reported as inconclusive [inhibitor, partial curve, poor fit].
With `Nc1ccccc1-c1n[nH]c(=S)s1` the Potency was inconclusive [inhibitor, single point].
With `Cc1ccc(NC(=O)CNc2ccccc2N2CCCC2=O)cc1S(=O)(=O)N1CCCCC1` the Potency was inconclusive [inhibitor, single point].
With `CC1=NN(c2ccccc2)C(=O)/C1=C/N(C)C` the Potency was “inactive”.
With `Cc1noc(C)c1CSCC(=O)Nc1cc(C(F)(F)F)ccc1N1CCOCC1` the Potency was inconclusive [inhibitor, partial curve].
For `CCCCOc1c(Cl)cc(CNC(C)(C)CO)cc1OCC`, the Potency was inconclusive [inhibitor, partial curve].
For `COc1cc(C2C3=C(COC3=O)OC(C)(C)Oc3cc4c(cc32)OCO4)cc(OC)c1OC` (configuration not stated), the Potency was inconclusive [inhibitor, single point].
With `c1csc(-c2cnc3n2CCCC3)c1` the Potency was inconclusive [inhibitor, single point].
With `COc1ccc(CCNC(=O)CCCn2c(=O)c3cccn3c3cccnc32)c(OC)c1OC` the Potency was inconclusive [inhibitor, full curve].
In the case of `C/C(=N\NC(=O)c1ccccc1C)c1ccc(NC(=O)c2cccs2)cc1`, the Potency is reported as inconclusive [inhibitor, single point].
In the case of `CCc1nn(C(C)C(=O)NC2CCCCCC2)c(=O)c2cc3occc3n12` (configuration not stated), the Potency is reported as active: 10 µM.
For `c1ccc2c(c1)nc(N1CCCCC1)c1ccccc12`, the activity change, negative = inhibition was inconclusive: -72.4% [inhibitor].
In the case of `CC(C)C[C@@H](CN)NC(=O)c1nc[nH]c1C(=O)N[C@@H](Cc1c[nH]c2ccccc12)C(=O)CNC[C@H](C)NC(=O)c1nc[nH]c1C(=O)N[C@@H](CC(=O)O)C(=O)O`, the Potency is reported as inconclusive [inhibitor, single point].
In the case of `Cc1cc(NC(=O)COc2ccc3ccccc3c2Br)no1`, the Potency is reported as inconclusive [inhibitor, single point].
For `Cn1nc(C(F)(F)F)c(/C=N/OC(=O)c2ccccc2Cl)c1SCc1ccc(Cl)cc1`, the Potency was inconclusive [inhibitor, single point].
In the case of `OCc1ccc(O)c2ncccc12`, the Potency is reported as active: 11.2 µM.
For `CN(C)C(=O)CCc1ccc2c3c([nH]c2c1)[C@]1(C)[C@@H](C(=O)N2CCCCC2)C[C@H](CC(=O)NCc2cccc(C(F)(F)F)c2)C(=O)N1CC3`, the Potency was inconclusive [inhibitor, full curve, poor fit].
For `CCOC(=O)c1cc2ccc3ccccc3c2s1`, the Potency was inconclusive [inhibitor, single point].
For `COc1ccc(C)cc1NC(=O)CSc1ccc(-c2ccccn2)nn1`, the Potency was inconclusive [inhibitor, single point].
In the case of `O=C(Nc1nc2ccc(S(=O)(=O)N3CCCCC3)cc2s1)c1ccncc1`, the Potency is reported as “inactive”.
In the case of `Cc1ccc(OCc2nnc(SCC(=O)N3C(C)CCCC3C)o2)cc1` (configuration not stated), the Potency is reported as “inactive”.
In the case of `Cc1cccc(/C=C/c2onc(C)c2[N+](=O)[O-])n1`, the Potency is reported as inconclusive [inhibitor, single point].
In the case of `Cc1cc(OC(=O)CCCNC(=O)OC(C)(C)C)c2c3c(c(=O)oc2c1)CCC3`, the Potency is reported as inconclusive [inhibitor, full curve, poor fit].
In the case of `O=C(/C=C/c1ccco1)Nc1ccc(N2CCCC2)cc1`, the Potency is reported as “inactive”.
With `COc1ccc(NS(=O)(=O)c2ccc(N3CCOCC3)c(NC(=O)c3ccc(OC)cc3)c2)cc1` the Potency was inconclusive [inhibitor, single point].
In the case of `COC(=O)Cc1c(C)c2ccc(OCC(=O)N3CCCC(C)C3)c(C)c2oc1=O` (configuration not stated), the Potency is reported as inconclusive [inhibitor, partial curve].
In the case of `O=C(CSc1cn(CCNC(=O)c2ccc3ccccc3c2)c2ccccc12)NCc1ccco1`, the Potency is reported as inconclusive [inhibitor, single point].
For `COc1cc(NC(=O)COC(=O)c2cnccn2)c(C)cc1[N+](=O)[O-]`, the Potency was inconclusive [inhibitor, single point].
For `O=C(Nc1cccc2cccnc12)c1ccccc1Cl`, the Potency was inconclusive [inhibitor, single point].
For `COc1ccccc1OCC(=O)Nc1nc(C)c(C)s1`, the Potency was inconclusive [inhibitor, partial curve].
With `NC1=NC(=O)C(c2ccccc2)C(=O)N1` (configuration not stated) the Potency was “inactive”.
In the case of `CCOC(=O)C1CCCN(Cc2nc(N)nc(Nc3ccc(OC)cc3)n2)C1` (configuration not stated), the Potency is reported as inconclusive [inhibitor, partial curve].
For `CC(=O)N1CC(C)Sc2ccc(S(=O)(=O)N3CCCCC3)cc21` (configuration not stated), the Potency was inconclusive [inhibitor, single point].
For `COc1ccc(C2(CNC(=O)c3ccc(OCC(C)C)cc3)CCOCC2)cc1`, the Potency was inconclusive [inhibitor, partial curve].
In the case of `COc1ccc(N2CCCC2)c(NC(=O)c2ccc([N+](=O)[O-])o2)c1`, the Potency is reported as inconclusive [inhibitor, partial curve].
For `C#CCSc1nnc(-c2c[nH]c3ccccc23)n1C`, the Potency was “inactive”.
In the case of `Cc1nn(CC(=O)N(C)C2CCS(=O)(=O)C2)c(C)c1[N+](=O)[O-]` (configuration not stated), the Potency is reported as “inactive”.
In the case of `CCOC(=O)c1c(C)n(Cc2ccccc2)c2ccc(OCC(O)CNC(C)(C)C)cc12` (configuration not stated), the Potency is reported as inconclusive [inhibitor, full curve].
In the case of `CN(C)c1ccc(/C=N/NC(=O)c2ccccc2Cl)cc1`, the Potency is reported as inconclusive [inhibitor, single point].
In the case of `CCc1[nH]nc2c1C(c1ccsc1)C(C#N)=C(N)O2` (configuration not stated), the Potency is reported as “inactive”.
For `CCOc1cc(CNC2CCCC2)cc(Cl)c1OCc1ccccc1`, the Potency was active: 12.6 µM.
In the case of `CCOC(=O)C1=CN(Cc2cccc(F)c2)S(=O)(=O)NC1c1ccc2ccccc2c1` (configuration not stated), the Potency is reported as inconclusive [inhibitor, single point].
With `Cc1ccc(S(=O)(=O)N2CCC(=O)N(C(COCc3cccc(Cl)c3)Cc3ccccc3)CC2)cc1` (configuration not stated) the Potency was inconclusive [inhibitor, partial curve].
For `Cc1ccccc1CNC(=O)Cn1ccc2cc(S(=O)(=O)N3CCCCCC3)ccc21`, the Potency was inconclusive [inhibitor, single point].
With `O=C(NCc1ccccc1Cl)C1CCN(S(=O)(=O)c2ccc(F)cc2)CC1` the Potency was inconclusive [inhibitor, partial curve].

Source: PubChem BioAssay AID651820 (National Center for Advancing Translational Sciences (NCATS), 2012)
On the % scale 0 is the no-effect control and ±100 the full control effect; potency means the concentration at half of the fitted maximal effect; tags describe the fitted curve by direction and shape.
